The record followed here is ChEMBL document CHEMBL4888484, “Replenishing the malaria drug discovery pipeline: Screening and hit evaluation of the MMV Hit Generation Library 1 (HGL1) against asexual blood stage Plasmodium falciparum ,using a nano luciferase reporter read-out” (2022).

Out of some 150,000 compounds screened, about 540 (0.36%) showed an effect of 50% or more. This is one part of the list.

For this experiment, the system named is Plasmodium falciparum. Description: Primary screen in NF54 nanoGlo assay, in single point, at 2uM, 72h; a lower Z score goes with more inhibition. The class given is functional, Erythrocyte. The settings on record: timepoint 72 hour.
Turning to `O=C(c1cc2ccccc2s1)N1CCC(Oc2nncs2)CC1`, the “% Inhibition” value was -1% and the Z score was 0.28.

As for `O=C(CCc1nc(CS(=O)(=O)c2ccccc2)no1)N1CCCCCC1`, the “% Inhibition” value is listed as -1% and the Z score turned out to be 0.1.

For `COCCCn1c(C)cc(C(=O)N2CCC[C@H](c3nc(C)ncc3CO)C2)c1C`, the “% Inhibition” value is -3% and the Z score turned out to be 0.44.

Take `CC(C)NC(=O)N1C[C@@H]2Oc3ccccc3S(=O)(=O)NC[C@H](O)CN(C)[C@@H]2C1`: the “% Inhibition” value is on record as 13% and the Z score is -1.96.

`Cc1nc(C)c(CNC(=O)c2ccc(C(C)C)nc2)o1`: the “% Inhibition” value is reported as -3% and the Z score was 0.59.

On to `CC(=O)Nc1ccc(S(=O)(=O)Nc2ccc(Oc3ccc(C)nn3)cc2)cc1`, for which the “% Inhibition” value was 12% and the Z score is -1.57.

For `COCc1cccc(CC(=O)N2CCCCC[C@H]2c2ncon2)c1`, the “% Inhibition” value is reported as -10% and the Z score amounted to 1.39.

Consider `CC(C)NC(=O)[C@@H]1C[C@@H](NC(=O)c2ccsc2)CN1c1ccnc(N)n1`, for which the “% Inhibition” value is recorded as -5% and the Z score was determined as 0.9.

As for `CC(C)(C)n1cc(C(=O)NC(c2ccccc2)C2CCOC2)nn1` (centres undefined), the “% Inhibition” value is reported as -7% and the Z score was 1.12.

In the case of `COc1cc(C)ccc1C(=O)NC(C)(C)c1ncc(OC)c(=O)[nH]1`, the “% Inhibition” value is -1% and the Z score worked out at 0.2.

For the compound `C[C@H](NS(=O)(=O)N1CCCCC1)c1cccnc1`, the “% Inhibition” value is given as 6% and the Z score is given as -0.82.

Regarding `COc1cccc(Cc2noc([C@H]3CCc4nc(C)nn4C3)n2)n1`, the “% Inhibition” value is given as -7% and the Z score was found to be 0.88.

In the case of `CC(C)Cc1noc(CN(C)C(=O)c2ccccc2[C@H]2CCNC2)n1`, the “% Inhibition” value is -13% and the Z score is listed as 2.11.

With `Cc1csc(NC(=O)c2ccc3c(c2)C(=O)N(CCc2ccccc2)C3=O)n1`, the “% Inhibition” value is given as -17% and the Z score was 2.09.

On to `COc1ccc(C(=O)N2CCCC2)c(OC2CCN(Cc3nnc(C)o3)CC2)c1`, for which the “% Inhibition” value is given as -12% and the Z score is 1.86.

As to `CCCC(=O)n1nc(NCc2cccc3ccccc23)nc1NCc1cccc2ccccc12`, the “% Inhibition” value amounted to 0% and the Z score was -0.05.

Consider `COCCn1cc(N[C@@H](CCC(C)C)C2CC2)cn1`, for which the “% Inhibition” value was -3% and the Z score amounted to 0.43.

As to `CCc1nccn1Cc1cn(CC(=O)N2CCOC(C)(C)C2)nn1`, the “% Inhibition” value is -7% and the Z score came out at 0.92.

For `O=C(NCc1noc(C(F)(F)Cl)n1)c1ccccc1C1CCC1`, the “% Inhibition” value is on record as -3% and the Z score is reported as 0.64.

Regarding `CCN(CC)CCN1C(=O)[C@@H]2C(C(=O)Nc3ccc(C)c(Cl)c3)[C@@H]3C=C[C@]2(O3)C1C(=O)NC1CCCC(C)C1C` (some centres undefined), the “% Inhibition” value is given as 7% and the Z score was -1.05.

For the compound `Cc1noc(C)c1CN1CCC[C@H](NC(=O)c2n[nH]c3c2CCCC3)C1`, the “% Inhibition” value was -11% and the Z score came to 1.36.

For `COc1cccc(NC(=O)c2sc3ncnc(N4CCCC[C@@H]4C)c3c2C)c1`, the “% Inhibition” value is listed as 1% and the Z score is given as -0.08.

For `CCc1ccc([C@@H](NC(=O)C(=O)Nc2cccc3cccnc23)C(C)C)cc1`, the “% Inhibition” value is given as -2% and the Z score worked out at 0.31.

Consider `Nc1nc(C2CC2)ncc1C(=O)NCc1ccccc1CN1CCOCC1`, for which the “% Inhibition” value is -5% and the Z score amounted to 0.84.

On to `CN(C)[C@@H](CNc1ccc(Cl)cn1)C1CC1`, for which the “% Inhibition” value is -4% and the Z score was found to be 0.53.

Take `Cc1nnc([C@@H]2CN(C(=O)Nc3ccc(OCCC(C)C)nn3)C[C@H](C)O2)o1`: the “% Inhibition” value is listed as -4% and the Z score was found to be 0.66.

On to `COc1cccnc1C(=O)N1CCCN(CC2CC2)[C@H](C(C)C)C1`, for which the “% Inhibition” value is -11% and the Z score was 2.16.

For the compound `O=C(NCCc1ccccc1)N1CC[C@H](OCc2ccccc2)C1`, the “% Inhibition” value is -13% and the Z score worked out at 2.28.

For the compound `COc1ccc([C@@H](C#N)C(=O)c2cc(OC)c3c(c2)OCO3)cc1`, the “% Inhibition” value is recorded as -5% and the Z score came to 0.61.

`Cc1cccc(-n2cc(-c3ccccc3)nc2NC(=O)CN(CC2CC2)C(=O)NC(C)(C)C)c1`: the “% Inhibition” value is given as -7% and the Z score is reported as 1.17.

Regarding `CCN(CCS(C)(=O)=O)C(=O)c1oc(Br)cc1C`, the “% Inhibition” value was -6% and the Z score is reported as 1.22.

`C[C@H](OC(=O)C1CCOCC1)c1c(F)cccc1N(C)C`: the “% Inhibition” value is on record as -16% and the Z score turned out to be 1.51.

`Cc1ccc([C@@H](O)CNS(=O)(=O)N2CCCC2)cc1`: the “% Inhibition” value is recorded as -13% and the Z score was 1.86.

With `Cc1nn(C)c(N2CCN(c3ncnc4c(C)cccc34)CC2)c1N`, the “% Inhibition” value was -16% and the Z score came to 1.79.

On to `Cc1nc2nc3c(c(N4CCN(c5cccc(C(F)(F)F)c5)CC4)n2n1)CCC3`, for which the “% Inhibition” value was 7% and the Z score was -0.6.

With `Cc1nnc([C@@]23COC[C@@H]2CN(C(=O)c2cccc4[nH]ccc24)C3)o1`, the “% Inhibition” value is recorded as -10% and the Z score is 1.33.

As for `CC1CCC(CC(=O)NC2CCN(CCS(C)(=O)=O)CC2)CC1` (centres undefined), the “% Inhibition” value is on record as -1% and the Z score is 0.2.

Take `CCCn1cc(CN2CCC(n3nccc3NC(=O)c3cccnc3)CC2)c(C)n1`: the “% Inhibition” value is recorded as -2% and the Z score is recorded as 0.31.

For the compound `COc1cccnc1CC(=O)NC1(c2ccccc2)COC1`, the “% Inhibition” value is given as -7% and the Z score is reported as 0.97.

As to `CN(CCN(C)C1CC1)C(=O)c1cc2[nH]cnc2cc1F`, the “% Inhibition” value amounted to 31% and the Z score is recorded as -4.5.

For `CCCn1c(C)cnc1C1CN(S(=O)(=O)c2ccc3c(c2)CCC3)C1`, the “% Inhibition” value is given as -14% and the Z score turned out to be 1.75.

With `Cc1cc(N(C)C)nc(N2CCN(C(=O)c3cccs3)CC2)n1`, the “% Inhibition” value was -16% and the Z score is reported as 3.13.

Take `Cc1cccc2cc3c(nc12)N(C(=O)C(C)(C)C)CC3`: the “% Inhibition” value was -7% and the Z score came out at 0.84.

Take `CC1CCC(CC(=O)N[C@H]2CCOC3(CC(C(=O)O)C3)C2)CC1` (some centres undefined): the “% Inhibition” value is -9% and the Z score stood at 1.52.

As for `Cc1c([C@H](C)NC(=O)c2cc(C3CC3)nc3onc(C4CC4)c23)cnn1C`, the “% Inhibition” value is listed as 8% and the Z score is -1.27.

On to `COc1ccc(N2C[C@@H](C(=O)OCCN(C3=NS(=O)(=O)c4ccccc43)c3ccccc3)CC2=O)cc1`, for which the “% Inhibition” value is -9% and the Z score is listed as 1.02.

Consider `O=C(c1ccco1)N1CC2OCCN(Cc3ccccc3)C2C1` (centres undefined), for which the “% Inhibition” value worked out at 7% and the Z score is -0.97.

Turning to `Cc1ccc(NC(=O)N2CCN(c3ccc(C)cc3C)C(=O)[C@@H]2C)cc1`, the “% Inhibition” value is -4% and the Z score was determined as 0.66.

Turning to `O=C(CCC1CCN(C(=O)c2ccccc2F)CC1)Nc1ccc(N2CCOCC2)cc1`, the “% Inhibition” value is -17% and the Z score is on record as 2.35.

As for `NC(=O)CCN(Cc1ccncc1Cl)c1ccc(F)cc1`, the “% Inhibition” value came to 2% and the Z score is -0.23.

Turning to `Cc1nnsc1C(=O)N1CCCC1CC(O)c1cccs1` (centres undefined), the “% Inhibition” value is -6% and the Z score is on record as 0.72.

For the compound `C[C@H](NC(=O)C1(N2CCCC2)CCCCC1)c1ccc2c(c1)OCCO2`, the “% Inhibition” value is -8% and the Z score came to 1.01.

Usually % Inhibition stands for the change of the read-out against control, counted positive when it falls.
